Assay results taken from a collection of fitness landscapes (doi:10.1016/j.celrep.2020.107928).
Whole data set: some 81,000 sequences, median “one-hybrid fitness for binding NBS DNA” near -0.1, cut for the highest 2% near 0.36. The list shows a part of the results.

B1: Caulobacter ParB omega fusion; a variant is named by its letters at X, in order, B8GW30 (parent)
chain: MESVVVGEPGMSEGRRGLGRGLSALLGEVDAAPAQAPGEQLGGSREAPIEILQRNPDQPRRTFREEDLEDLSNSIREKGVLQPILVRPSPDTAGEYQIVAGERAWRAAQRAGLKTVPIMVRELDDLAVLEIGIIENVQRADLNVLEEALSYKVLMEKFERTQENIAQTIGKSXSHVANXMRLLXLPDEVQSYLVSGELTAXHARAIAAAADPVALAKQIIEGGLSVRETEALARKAPNLSAGKSKGGRPPRVKDTDTQALESDLSSVLGLDVSIDHRGSTGTLTITYATLEQLDDLCNRLTRGI

Variants of: B1
Test: one-hybrid fitness for binding NBS DNA (the Noc-binding site; scaled: cognate 1, non-cognate 0); higher = stronger binding
Conditions: with NBS DNA site
Method in brief: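 Selection: bacterial one-hybrid in E. coli USO, HIS3 reporter with the site 19 bp from the promoter, 48 hours at 37°C on M9-minus-histidine plus 0.1 mM IPTG and 5 mM 3-AT. Libraries were Caulobacter ParB with four randomised specificity codons, sequenced on Illumina before and after selection. Fitness is the rescaled log change in variant-to-wild-type read ratio, anchored to the cognate and non-cognate sites.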

one-hybrid fitness for binding NBS DNA, 0.306:
QVYR

one-hybrid fitness for binding NBS DNA, 0.393:
KKQT

one-hybrid fitness for binding NBS DNA, 0.252:
PQKR

one-hybrid fitness for binding NBS DNA, 1.06:
QRHR

one-hybrid fitness for binding NBS DNA, 0.681:
QHRT

one-hybrid fitness for binding NBS DNA, ≤ 0.2:
QSSY
DKLC
RAWE
KWNG
SPPG
YGSE
RWVY
HKSW
VQRT
LMHS
TMEV
KECK
GILA
GLTM
KGQG
IPQR
LTEA
VNLP
QAVP
FLKR
KACS
RCVA
ERNE
MMQY
YVAF
KQVG
AGLG
IYPG
SWPD
EKNI
PAGS
WGFL
NFMA
LCTG
PVKT
SMWS
ESYW
YAYY
IPVQ
QGLH
SIPS
LTSS
REGS
QCIN
DLDN
CMVS
ESSH
ATPV
HAHY
TSMT
VFRS
ASNK
KNRA
RMDV
PTQR
CRIF
SGHG
LTGG
DLLL
QLIH
ALRS
SGTK
ARDF
SKYI
QDIG
MKLF
LAWV
MMWA
FPAR
YENC
TASI
YWAT
VYRC
MMRG
QQVH
AQVC
HGSK
LQWQ
MVRR
VLTA
AQLW
YMWY
VVIS
YSDC
KSNI
VDVS
PHYV
EALE
WNKI
LWLW
LSLA
LANL
IKRF
DVPY
VSQE
LLQV
QGYI
PHHE
MPPR
TGRC
SLHK
GTPK
PDLF
RMWK
LMWG
SHDR
HKTI
YISG
NDDD
KPNF
LALT
FHAA
WSLG
RVQY
QGNC
GPLH
HAPW
KAYL
SLMR
TPLH
QSNK
QDVS
ATQA
ELSL
SEDC
DRDG
IGET
RFYQ
KPQG
NSTY
RQHD
CAIR
YTNK
TNII
CPLL
HCDP
RFPH
RWNE
IDKA
MMQS
SPNM
QKMG
TPPH
KTSL
QCHP
DPSC
GSTT
KQCS
EGSH
GAYY
SMDY
ANYW
EDEL
FLQT
RHII
ALLM
CTNM
AAHT
WSTE
WLHT
NIMR
LLMC
HPCP
VWLS
VDEL
SMKF
NIRG
WCTG
SQKY
NMLS
DLLC
ACCE
KYKY
CRGS
IIDV
LMAG
YAQC
QFKG
KRIF
HMPR
CDAR
STYM
AGVG
CPGS
RWFK
REDH

one-hybrid fitness for binding NBS DNA, 0.233:
RKTH

one-hybrid fitness for binding NBS DNA, 0.396:
QAFY

one-hybrid fitness for binding NBS DNA, 0.31:
QKSA

one-hybrid fitness for binding NBS DNA, 0.296:
NDVN
